Square brackets hold non-standard residues; d marks the D form. Ends that are not written are not given here. sY = N[C@@H](Cc1ccc(OS(=O)(=O)O)cc1)C(=O)O
Biological target: T1, synthetic peptide Pep1S (also: C-terminal Cys coupled to BSA or OVA via sulfo-SMCC, or to biotin)
T1 construct: Loosely based on the tyrosine sulfation site of PSGL-1; In the ELISAs it stood as the BSA conjugate BSA-1S; also called BSA-1S; OVA-1S
T1 peptide: KDKKYATE[sY]EYLDYDFC
Assay: confirmatory soluble scFv ELISA on BSA-1S and BSA-1 (FIG. 2B)

B1: scFv 25 (scFv)
scFv: IVLTQSPSSLSASVGDRVIITCRASQSITKYVNWYQQKPGKAPNLLIYGASSLQSGVPSRFSGSGSGTDFTLTINSLQPEDFATYYCQQTYNVPRTFGQGTKVDIKSGGSTITSYNVYYTKLSSSGT[skipping about 100 residues]STYDSSGYYRHWYFDLWGRGTLVTVSS
notes: Soluble scFv expressed in E. coli; ELISAs used scFv-conditioned media or purified scFv, detected through the sv5 tag; also called clone scFv 25; not shown: sv5 tag of the library construct, used for detection with mouse anti-sv5
- binding result: binds

Source: patent publication US7589182 (LOS ALAMOS NATIONAL SECURITY, dated 2009)
